Where “and” joins values, the source holds several entries; their conditions need not be identical. Identical values can stand only once. Screen size: about 420,000 compounds; about 50,000 (12%) were called active. The inconclusive results got no clear call from the source; some entries with a clear call stand among them for comparison. Calls follow the shape of the dose curve; as a rule, active = well fitted inhibition curve with a large enough effect; inconclusive = small, poorly fitted or top-dose-only effect; inactive = flat fitted curve, though single readings scatter. A potency beside an inconclusive call is a rough fit, not a confirmed value.
Assay: qHTS for Inhibitors of human tyrosyl-DNA phosphodiesterase 1 (TDP1): qHTS in cells in presence of CPT; also: nearly all actives have a fitted effect of over 55% in size
Conditions: chicken DT40 Tdp1-/-;hTDP1 cells + 20 nM CPT, ATP luminescence, 48 h; series mostly up to 46.2 µM
In short: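 Chicken DT40 Tdp1-/- cells complemented with human TDP1, 400 cells/well, exposed to compounds plus 20 nM camptothecin for at least 48 h at 37 C; viability read as ATP content by CellTiter-Glo luminescence.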
Potency is read from the fitted curve at half-maximal effect; tags tell the direction and shape of the fitted curve.

SMILES	Potency
Cc1ccccc1NC(=O)Cn1c(=O)n(Cc2ccccc2)c(=O)c2c(C)c(C)sc21	inconclusive: 14.6 µM [inhibitor, partial curve] and inconclusive: 11.6 µM [inhibitor, partial curve]
O=C(N/N=C/c1ccccc1F)c1ccccc1OCc1ccccc1	inconclusive: 29.1 µM [inhibitor, single point]
Cn1c(=O)cc(SCC(=O)N2CCN(c3ccccc3F)CC2)c2ccccc21	inconclusive: 18.4 µM [inhibitor, single point]
O=C(Nc1ccc2c(c1)OCO2)C1CCCN1C(=O)OCc1ccccc1 (stereo not given)	inconclusive: 25.9 µM [inhibitor, single point]
COc1ccc(-c2cc3nc(C4CCN(C(=O)OC(C)(C)C)CC4)c(C(=O)Nc4cc(C)cc(C)c4)cn3n2)cc1	inconclusive: 25.9 µM [inhibitor, single point]
CCC(C)Cn1c(C)nc2ccccc21 (stereo not given)	inconclusive: 29.1 µM [inhibitor, single point]
CCNc1ncc2nc(-c3ccc(Cl)cc3)c(=O)n(CCC#N)c2n1	inactive
Cc1ccc(NC(=O)CSc2ccc3c(c2)OCCO3)c(O)c1	active: 18.4 µM
CCC(Sc1nnc2c3ccccc3n(CC)c2n1)C(=O)Nc1nnc(C(C)C)s1 (stereo not given)	inconclusive: 29.1 µM [inhibitor, single point]
CC(C)(C)c1ccc(C(=O)NCc2nnc(SCC(=O)N3CCCC3)o2)cc1	inactive
Cc1ccc2c(COC(=O)c3ccc(NC(=O)CC#N)cc3)cc(=O)oc2c1C	inactive
O=C(Nc1ccc2c(c1)CCC2)c1cc(F)cc(F)c1	inactive
CCN1C(=O)[C@@H]2[C@@H](c3ccc(-c4ccc5c(c4)OCO5)c(OC)c3)N3CCC[C@@]3(C(=O)OC)[C@@H]2C1=O	inactive
COc1ccccc1NC(=O)N1CCCC(C(=O)Nc2cccc(C)c2C)C1 (stereo not given)	inactive
CN1CCN(c2ncc3nc(CCc4ccccc4)c(=O)n(C)c3n2)CC1	active: 23.1 µM
CCOc1ccc(CN(CCc2ccc3c(c2)OCO3)Cc2cc(OC)c(OC)cc2OC)cc1	inconclusive: 25.9 µM [inhibitor, single point]
Cc1cc(C)c(C(N)=O)c(SCC(=O)c2ccc(Cl)cc2)n1	inconclusive: 29.1 µM [inhibitor, single point]
Cc1nc(C)c(-c2csc(N)n2)s1	inactive
CCCCN1CC(c2nc3ccccc3n2CCCCOc2cccc(C)c2C)CC1=O (stereo not given)	inconclusive: 18.4 µM [inhibitor, single point]
CCCN1CCN(CCCNC(=O)c2ccc3nc(Cc4ccccc4)oc3c2)CC1	inconclusive: 32.6 µM [inhibitor, single point]
CCS(=O)(=O)N1Cc2ccccc2CC1C(=O)Nc1nnc(SCc2ccc(F)cc2)s1 (stereo not given)	inconclusive: 18.4 µM [inhibitor, partial curve, poor fit]
Cc1ccc(S(=O)(=O)N2CCCC2CNC(=O)C(=O)NCc2cccs2)cc1 (stereo not given)	inconclusive: 29.1 µM [inhibitor, single point]
CCOc1ccc(NC(=O)CC2C(=O)N(c3cccc(C)c3)C(=O)N2Cc2cccs2)cc1 (stereo not given)	inconclusive: 18.4 µM [inhibitor, single point]

SMILES	Potency
CCOC(=O)N1CCN(C(=O)c2cc(S(=O)(=O)N3CCc4ccccc43)ccc2OC)CC1	inconclusive: 16.4 µM [inhibitor, partial curve]
O=C(c1ccc(N2CCN(S(=O)(=O)c3ccccc3)CC2)c([N+](=O)[O-])c1)N1CCOCC1	inconclusive: 29.1 µM [inhibitor, single point]
CN1C(=O)CCS(=O)(=O)C1c1ccc(Cl)c(Cl)c1 (stereo not given)	inactive
CCN(CC(=O)Nc1ccc(OC)cc1)CC(=O)N1CC(=O)Nc2ccccc21	inactive
CCN(C(=O)c1cnc(OC)cc1C(F)(F)F)c1ccc(Cl)cc1Cl	inactive
Cn1c(CC(=O)NNC(=O)c2ccccc2F)nc2ccccc21	inconclusive: 16.4 µM [inhibitor, single point]
COc1cc(NC(=O)C2CCCCC2)c(OC)cc1NC(=O)c1ccco1	inactive
O=C(CSc1nnc(COc2ccc(Cl)cc2)o1)N1c2ccccc2CCc2ccccc21	inconclusive: 18.4 µM [inhibitor, single point]
Cc1nc2ccc(NC(=O)c3cc(S(=O)(=O)N4CCOCC4)ccc3C)cc2s1	inconclusive: 25.9 µM [inhibitor, single point]
COc1cc(NC(=O)CCc2c(C)nn(-c3ccc(N4CCCCC4)nn3)c2C)cc(OC)c1OC	active: 20.6 µM
O=C(CC(C(=O)O)c1ccc(Cl)cc1)c1ccccc1 (stereo not given)	inactive
Cc1cc(-n2c(C)nc3ccccc3c2=O)ccc1NC(=O)c1ccccc1[N+](=O)[O-]	active: 18.4 µM
Cc1cccc(NC(=O)c2ccc3nccnc3c2)n1	inconclusive: 11.6 µM [inhibitor, partial curve]
CCN(CC)CCn1c(NCc2cccc(OC)c2)nc2ccccc21	inconclusive: 29.1 µM [inhibitor, single point]
O=C(NC(=S)Nc1ncc(Br)cc1Br)c1ccccc1	inconclusive: 18.4 µM [inhibitor, single point]
NC(=O)C1(N2CCCCC2)CCN(Cc2ccccc2Cl)CC1	inconclusive: 7.31 µM [inhibitor, full curve, poor fit]
Cc1cc(C)cc(NC(=O)CCCc2nc(-c3ccco3)no2)c1	inactive
Cc1cn([C@H]2C[C@H](O)[C@@H](CCC(=O)NC(c3ccccc3)c3ccccc3)O2)c(=O)[nH]c1=O	inactive
O=C(Cc1ccccc1)NC(NC(=O)Cc1ccccc1)c1cccc([N+](=O)[O-])c1	inconclusive: 29.1 µM [inhibitor, single point]
COc1cc(/C=C(\NC(C)=O)C(=O)NC(C)(C)CC(C)(C)C)ccc1OC(C)=O	inactive
C=CCNC(=O)COc1ccc(Oc2ccccc2)cc1	active: 14.6 µM
Cc1cccc(N(CC(=O)NC2CCCC2)C(=O)c2csnn2)c1C	inactive

From PubChem BioAssay AID686979 (National Center for Advancing Translational Sciences (NCATS), 2013)
